{"source": "PubChem BioAssay AID686979", "about": "(National Center for Advancing Translational Sciences (NCATS), 2013)", "note": "Screen size: about 420,000 compounds; about 50,000 (12%) were called active. Inconclusive means that the source gave no clear call. Such entries were picked first, then a sample of the others. Calls follow the shape of the dose curve; as a rule, active = well fitted inhibition curve with a large enough effect; inconclusive = small, poorly fitted or top-dose-only effect; inactive = flat fitted curve, though single readings scatter. No potency is given beside an inconclusive call; the fits are too rough. % is scaled to controls: 0 for no effect and ±100 for the full control effect; potency is read from the fitted curve at half-maximal effect; tags tell the direction and shape of the fitted curve."}
{"test": "qHTS for Inhibitors of human tyrosyl-DNA phosphodiesterase 1 (TDP1): qHTS in cells in presence of CPT; also: nearly all actives have a fitted effect of over 55% in size", "details": "chicken DT40 Tdp1-/-;hTDP1 cells + 20 nM CPT, ATP luminescence, 48 h; activity change, negative = growth inhibition: at 46.2 µM (top of the series) unless noted", "summary_of_the_method": "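Chicken DT40 Tdp1-/- cells stably complemented with human TDP1 were seeded at 400 cells/well in medium containing 20 nM camptothecin, exposed to pin-transferred compounds, and grown at 37 °C for at least 48 hr. Viability was read as ATP luminescence.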"}
{"smiles": "O=C(CN1CCC(NC(=O)Cc2ccccc2)CC1)Nc1ccccc1Br", "Potency": "inconclusive [inhibitor, single point]"}
{"smiles": "CCOC(=O)c1scc(-c2ccccc2)c1S(=O)(=O)Nc1cc(OC)cc(OC)c1", "Potency": "inconclusive [inhibitor, single point]"}
{"smiles": "CCCCP(=O)(CCCC)Cc1ccccc1O", "Potency": "inconclusive [inhibitor, single point]"}
{"smiles": "C=CCn1c(SCC(=O)N(C)C2CCS(=O)(=O)C2)nnc1-c1ccncc1", "note": "(centres undefined)", "Potency": "inconclusive [inhibitor, single point]"}
{"smiles": "COc1cc(OC)cc(-c2c(-c3cccs3)c3cc(-c4ccc(C(N)=O)cc4)ccc3n2C)c1", "Potency": "inconclusive [inhibitor, single point]"}
{"smiles": "Cc1cc(C)c2ccc(/C=N/O)nc2c1O", "activity change, negative = growth inhibition": "inactive: -20.6%"}
{"smiles": "CCN(CC)CCCC(C)Nc1cc(/C=C/c2ccccc2Cl)nc2cc(Cl)ccc12", "note": "(centres undefined)", "Potency": "active: 0.631 µM"}
{"smiles": "Cc1ccc(/C=C2/NC(=O)N(Cc3ccc(Br)cc3)C2=O)o1", "Potency": "inconclusive [inhibitor, single point]"}
{"smiles": "COc1ccc(C(=O)NC23CC4CC(CC(C4)C2)C3)cc1OC", "activity change, negative = growth inhibition": "inactive: -26.8%"}
{"smiles": "CC(=O)N1CCC2(CC1)CN(Cc1ccccc1)C2", "activity change, negative = growth inhibition": "inactive: 6.52%"}
{"smiles": "O=C(NCc1ccccc1)[C@H]1C[C@@H]1[C@H](NP(=O)(c1ccccc1)c1ccccc1)c1ccccc1", "Potency": "active: 18.4 µM"}
{"smiles": "CN1C=C/C(=C\\c2cc[n+](C)c3ccccc23)c2ccccc21", "Potency": "active: 0.206 µM"}
{"smiles": "CNc1nc(N)c([N+](=O)[O-])c(Nc2cccc(F)c2)n1", "Potency": "inconclusive [inhibitor, partial curve]"}
{"smiles": "CN(C)CCOC1c2ccccc2CCc2ccc3ccccc3c21", "note": "(centres undefined)", "Potency": "inconclusive [inhibitor, single point]"}
{"smiles": "O=C(Cn1cc(SCc2c(F)cccc2Cl)c2ccccc21)N1CCCCCC1", "Potency": "active: 23.1 µM"}
{"smiles": "Cc1cc(C)c(C)c(C(=O)c2ccccc2C(=O)O)c1C", "Potency": "active: 3.66 µM"}
{"smiles": "COc1ccc(S(=O)(=O)N2CCCCC2)cc1NC(=O)c1cnc(C)cn1", "Potency": "inconclusive [inhibitor, single point]"}
{"smiles": "COc1cc(CSC)nc(-c2ccccc2)n1", "activity change, negative = growth inhibition": "inactive: 3.2%"}
{"smiles": "CCOC(=O)/C(=C/c1ccc(N2CCC(c3ccccc3)=N2)cc1)C(C)=O", "Potency": "inconclusive [inhibitor, single point]"}
{"smiles": "O=C(/C=C/c1ccc(O)cc1)c1cccs1", "Potency": "active: 23.7 µM"}
{"smiles": "COC(=O)Cn1cc(S(=O)(=O)NCc2ccc(C)cc2)c2cc([N+](=O)[O-])ccc21", "activity change, negative = growth inhibition": "inactive: -22.7%"}
{"smiles": "COc1ccc(NC(=O)COc2ccc(/C=N/O)cc2OC)cc1", "Potency": "inconclusive [inhibitor, single point]"}
{"smiles": "O=C(c1cc2cc(F)ccc2[nH]1)N(Cc1cccnc1)CC1CCCN(C2CCCCC2)C1", "note": "(centres undefined)", "activity change, negative = growth inhibition": "inconclusive: -30.6% [inhibitor]"}
{"smiles": "O=C1Nc2cnc(Cl)nc2Nc2ccccc21", "activity change, negative = growth inhibition": "inactive: -21.1%"}
{"smiles": "Cc1c(C(=O)NCc2ccc3c(c2)OCCO3)sc(=O)n1Cc1ccccc1F", "Potency": "inconclusive [inhibitor, single point]"}
{"smiles": "CCOc1ccc(NS(=O)(=O)c2ccc(-c3cc(C)no3)s2)cc1", "Potency": "inconclusive [inhibitor, single point]"}
{"smiles": "CCC(/C=N/NC(=O)C(=O)N/N=C/C(CC)CC)CC", "activity change, negative = growth inhibition": "inactive: 1.05%"}
{"smiles": "Cc1ccc(C)c(NC(=O)c2cnn(-c3cccc(F)c3)c2C2CCN(C(=O)OC(C)(C)C)CC2)c1", "Potency": "inconclusive [inhibitor, single point]"}
{"smiles": "Cc1noc(C)c1NC(=O)N(C)C[C@H]1Oc2ccc(NC(=O)NC(C)C)cc2C(=O)N([C@H](C)CO)C[C@@H]1C", "Potency": "inconclusive [inhibitor, full curve, poor fit]"}
{"smiles": "COc1ccc(CNC(=O)COC(=O)c2c(C)nn(-c3ccccc3)c2C)cc1OC", "activity change, negative = growth inhibition": "inactive: -1.35%"}
{"smiles": "CC1(C)CC(NS(=O)(=O)OCC(Cl)(Cl)Cl)c2cc(C#N)ccc2O1", "note": "(centres undefined)", "Potency": "inconclusive [inhibitor, single point]"}
{"smiles": "N#C/C(=C\\c1ccc(OC(F)F)cc1)C(=O)N1CCCCC1", "Potency": "inconclusive [inhibitor, single point]"}
{"smiles": "O=C(CN1CCCCCC1)NN(Cc1ccccc1)c1ccccc1", "Potency": "inconclusive [inhibitor, single point]"}
{"smiles": "Cn1c(=O)nc2n(Cc3ccccc3)c3cccc(Cl)c3cc-2c1=O", "Potency": "inconclusive [inhibitor, single point]"}
{"smiles": "COc1cccc(NC(=O)N2CCC(NC(=O)C(Cc3cccc(C)c3)NC(C)=O)CC2)c1", "note": "(centres undefined)", "activity change, negative = growth inhibition": "inactive: -13.8%"}
{"smiles": "CC(=O)C12CCCCC1CC1[C@@H]3CC(C)C4=CC(=O)CC[C@]4(C)C3CC[C@@]12C", "note": "(some centres undefined)", "Potency": "inconclusive [inhibitor, single point]"}
{"smiles": "O=C(NCc1cccnc1)/C(=C/c1ccc(-c2cccc(C(F)(F)F)c2)o1)NC(=O)c1ccccc1", "Potency": "active: 13 µM"}
{"smiles": "COc1ccc(Cc2nnc(-c3cccc(C)c3)o2)cc1OC", "Potency": "inconclusive [inhibitor, single point]"}
{"smiles": "O=C(CNCC1CCCO1)N1CCN(S(=O)(=O)c2ccc3ccccc3c2)CC1", "note": "(centres undefined)", "Potency": "inconclusive [inhibitor, partial curve]"}
{"smiles": "CCn1c(SC(C)C(=O)OC)nnc1-c1c[nH]c2ccccc12", "note": "(centres undefined)", "Potency": "inconclusive [inhibitor, single point]"}
{"smiles": "COc1ccc(-n2nc(C(=O)NCC(=O)NCCc3ccc(OC)c(OC)c3)c3ccccc3c2=O)cc1Cl", "Potency": "inconclusive [inhibitor, single point]"}
{"smiles": "Cc1c(Cc2ccccc2)c(NCCN(C)C)n2c(nc3ccccc32)c1C#N", "activity change, negative = growth inhibition": "inactive: -29.2%"}
{"smiles": "N#C/C(=C/c1cn[nH]c1-c1cccc(Br)c1)C(=O)O", "activity change, negative = growth inhibition": "inactive: -4.8%"}
{"smiles": "COc1ccccc1C(CNC(=O)c1cccc(S(=O)(=O)Nc2ccc(C)cc2)c1)N(C)C", "note": "(centres undefined)", "Potency": "inconclusive [inhibitor, single point]"}
{"smiles": "O=C(Nc1ccc(OC(F)(F)F)cc1)C1CCCN(S(=O)(=O)c2cccnc2)C1", "note": "(centres undefined)", "Potency": "active: 18.4 µM"}
{"smiles": "COc1ccc(CCNC(=O)Cn2ccc3c(OC)cccc3c2=O)cc1OC", "Potency": "inconclusive [inhibitor, single point]"}
{"smiles": "COc1ccc(CCNC(=O)CSc2cn(Cc3ccccc3)c3ccccc23)cc1OC", "Potency": "inconclusive [inhibitor, single point]"}
{"smiles": "CC(=O)c1c(C)[nH]c(C(=O)Nc2ccc(C)c(S(=O)(=O)N(C)C)c2)c1C", "Potency": "inconclusive [inhibitor, single point]"}
{"smiles": "CCOC(=O)CNC(=O)Nc1nnc(-c2ccc(OCC)cc2)o1", "activity change, negative = growth inhibition": "inactive: -2.58%"}
{"smiles": "COc1ccccc1N(C)S(=O)(=O)c1ccc(C(=O)OCC(=O)Nc2ccc(C(N)=O)cc2)cc1", "Potency": "inconclusive [inhibitor, single point]"}
{"smiles": "Cc1ccc(S(=O)(=O)Nc2ccccc2-c2ccccc2NS(=O)(=O)c2ccc(C)cc2)cc1", "Potency": "inconclusive [inhibitor, single point]"}
{"smiles": "CCC(=O)N1c2ccccc2CC1C(=O)NCCc1ccccc1C", "note": "(centres undefined)", "Potency": "inconclusive [inhibitor, partial curve, poor fit]"}
{"smiles": "COc1ccc(NS(=O)(=O)c2cc(NC(=O)CCSc3ccccc3)ccc2OC)cc1", "Potency": "inconclusive [inhibitor, single point]"}
{"smiles": "Clc1ccc(C2CC(c3ccccc3)Nc3ncnn32)cc1", "note": "(centres undefined)", "Potency": "inconclusive [inhibitor, single point]"}
{"smiles": "NS(=O)(=O)c1ccc(NC(=O)COC(=O)c2ncc(Cl)c(Cl)c2Cl)cc1", "activity change, negative = growth inhibition": "inactive: -13.6%"}
{"smiles": "O=C(N/N=C/C(c1ccccc1)c1ccccc1)c1ccccc1F", "activity change, negative = growth inhibition": "inactive: 18.9%"}
{"smiles": "CC(C)N1C(=O)N(c2cccc(Cl)c2)C(C)(O)CC1(C)C", "note": "(centres undefined)", "activity change, negative = growth inhibition": "inactive: -2.15%"}
{"smiles": "O=C(Nc1ccc2nn(-c3ccccc3)nc2c1)c1cc2ccccc2o1", "Potency": "inconclusive [inhibitor, single point]"}
{"smiles": "CCOC(=O)C1(C)CCN1C(=O)c1cccc2ccccc12", "note": "(centres undefined)", "Potency": "inconclusive [inhibitor, single point]"}
{"smiles": "Cc1cc2ccccc2n1CCNC(=O)c1cccc(Br)c1", "Potency": "active: 20.6 µM"}
{"smiles": "COC(=O)c1ccc(/C=C/c2c(-c3ccc(OC)cc3)sc3ccccc23)cc1", "Potency": "active: 14.6 µM"}
{"smiles": "CCOC(=O)C1=CN(c2cccc(F)c2)C=C(C(=O)OCC)C1c1cc(OC)c(O)c([N+](=O)[O-])c1", "Potency": "inconclusive [inhibitor, single point]"}
{"smiles": "CCOc1ccc(S(=O)(=O)N2CCCCC2)cc1NC(=O)Cc1ccsc1", "Potency": "inconclusive [inhibitor, single point]"}
{"smiles": "CC(=O)N1Cc2ccccc2C(C)CC12CCCC2", "note": "(centres undefined)", "Potency": "inconclusive [inhibitor, single point]"}
{"smiles": "NC(=O)c1c(NC(=O)C2CCCO2)sc2c1CCCC2", "note": "(centres undefined)", "Potency": "inconclusive [inhibitor, single point]"}
{"smiles": "O=C(CNC(=O)c1cccc(F)c1)N/N=C/c1cc(Br)ccc1OC(=O)/C=C/c1ccco1", "Potency": "active: 7.31 µM"}
{"smiles": "COc1ccc2oc(=O)cc(CN3CCN(Cc4ccccc4)CC3)c2c1", "Potency": "inconclusive [inhibitor, single point]"}
{"smiles": "O=C(Nc1ccc(Cl)cc1)C1Cc2c(-c3ccccc3)ccnc2O1", "note": "(centres undefined)", "Potency": "inconclusive [inhibitor, single point]"}
{"smiles": "CCOC(=O)c1sc(NC(=O)CSc2nnc(C)s2)c(C(=O)OCC)c1C", "Potency": "inconclusive [inhibitor, single point]"}
